Assay results as given in article PMC12136788.
The other results are listed elsewhere or left out.

B1: 31452972_31454240_1324_CDS_ENSG00000134644_ENST00000257075|human|control|control (ssRNA)
RNA: GGGAGUUCUACAGUCCGACGAUCGAUGUAUGGAUUGGGGACAAACGCAGCGGGAGCUAAACCGAUGUGCGGCUGAUGAGCAGCUGCCAGUGCAUACUGCUGCUGCUGAGCAGCUGUCAACUGCUGGACAGCAAGCGCAUUAGGCAACAGAGGAUUGAGCAUCA
B2: chr4:76721835:76721836:+_ENSG00000138768_ENST00000264904|hu_mus|hu_hu_hu_mus_True|48_108 (ssRNA)
RNA: GGGAGUUCUACAGUCCGACGAUCGUUGGCUGGGGUUUUCUGAGACGCUCUGGAAUAUAACUCAUGUUUGCUAAUAAAUCCUAGUUUUCUAUGAAAUUUCUCUUUGCCAAUCCUCUUCUCUAUUAGUUGCUUUAGUUUCUCUUUCAACAGAGGAUUGAGCAUCA
B3: chr4:40912178:40912179:+_ENSMUSG00000028419_ENSMUST00000030128|mus_mus|FALSE|FALSE (ssRNA)
RNA: GGGAGUUCUACAGUCCGACGAUCACAGUUCAUUCCAACAGUAGAUCGUGUAAUGACUUGCUCACAUGACACAACAAAAUCUAUCAAAAGAGGCCAUGACUUAAACCCAUCUACAAUACCACAACAGACAAGGGUUCUGAAGCACAACAGAGGAUUGAGCAUCA
B4: chr5:65987834:65987835:+_ENSMUSG00000029203_ENSMUST00000142407|mus_mus|FALSE|FALSE (ssRNA)
RNA: GGGAGUUCUACAGUCCGACGAUCGUUAUUUCACACAUUUCCUUCUUAUCUGAGAAUAUAAAGAACAGUACAAAGUUUUAGCUACUUAAAAUAAAUAAAGAAAAACUUGUUUCCUUUGGCAUCUUUAUAAAAUAACCUACAGCACAACAGAGGAUUGAGCAUCA
B5: chr4:40912178:40912179:+_ENSMUSG00000028419_ENSMUST00000030128|mus_hu|FALSE|FALSE (ssRNA)
RNA: GGGAGUUCUACAGUCCGACGAUCUAAUUCCAUUCCAAUAAUGGACACAGUAACGACUUGUUCACAAGACACAACAAAACCCAUCAAAAAGGCCAUCACUUUAACCAACCUAUAAUACCACAAUAGAAAAUGAUUCUGAAUCAUCAACAGAGGAUUGAGCAUCA
B6: 12254499_12254619_310_CDS_ENSG00000106460_ENST00000396668|human|control|control (ssRNA)
RNA: GGGAGUUCUACAGUCCGACGAUCGCAGGUGACACUAUCUCUUCCUGUAAAUUCCACAUAUGGAAACUGAGAGACAUCUCCAUUUCUUCCAUCUUCAUUAUGGACUUCACUAUUAACCAGUCCAUUCCUCAUGUUUUCAGAUGUCAACAGAGGAUUGAGCAUCA
B7: chr4:95690885:95690886:+_ENSMUSG00000028572_ENSMUST00000156910|mus_mus|mus_mus_mus_hu_False|1_98 (ssRNA)
RNA: GGGAGUUCUACAGUCCGACGAUCUUUAGAAAAUGUUAAUGUUAAAUCUAAAAUAUUUUCAAAGGCUUAUUUUAUUUUACCAGAAGUCACAGGCAAGCAGACACUACAAGAAUAUAUGAAAAUGAAACUCAACAAUAAAAUGUACAACAGAGGAUUGAGCAUCA
B8: chr6:38652254:38652255:-_ENSG00000124767_ENST00000373365|hu_hu|hu_hu_hu_mus_False|28_88 (ssRNA)
RNA: GGGAGUUCUACAGUCCGACGAUCCGAGAACUUCAUAGCAGGGAAGUCACAUUUUUGCAGGAGGGUCAGUCCAAGAACCCUCGUAUAAAAAUCCAGGGACUUCUUAGGAUCCUUCACUCUUAGCAUCGUUUGCUGCAGUAGAAACAACAGAGGAUUGAGCAUCA
B9: chr7:91259230:91259231:-_ENSMUSG00000038459_ENSMUST00000117085|mus_hu|motif|central (ssRNA)
RNA: GGGAGUUCUACAGUCCGACGAUCCCCUUCAACCCAAAGGGGCUCCACGGCUCGGGGACAGCGCUCGUACAUCGCGGGGCCAUGGGAGAAAUCGAUGACCUCAUCCUCUGUACCAUGAAUGACCAACACAGGAGAGGUGACUUUCAACAGAGGAUUGAGCAUCA
B10: chr1:60041781:60041782:+_ENSMUSG00000041040_ENSMUST00000036540|mus_hu|mus_mus_mus_hu_False|48_88 (ssRNA)
RNA: GGGAGUUCUACAGUCCGACGAUCAAGUUUACAAUAGUAAAGUAAAUCAAAUUUAGUCAAAUUUUCUUUUAUUUUCCUUCACAAAAGAAAACCUCAGUAACCCAGUCCUAGUCUUGGACAUAGUGAAAGCUAUAAAUUCUGACUCAACAGAGGAUUGAGCAUCA
B11: chr4:4691572:4691573:-_ENSMUSG00000066324_ENSMUST00000084949|mus_mus|FALSE|FALSE (ssRNA)
RNA: GGGAGUUCUACAGUCCGACGAUCAAAGAUUAGGGUUUUUCUACACAGUUUUAAGACAGAGCCAUUCUGCAGGUAUAUCACUAAAAACAUCUUACUUGGACCUAAAAUGAAAACACUACUAAUGUUUCUACACAGCAGUAAUAUCAACAGAGGAUUGAGCAUCA
B12: chr3:9412954:9412955:+_ENSG00000134077_ENST00000452837|hu_mus|hu_hu_hu_mus_False|58_108 (ssRNA)
RNA: GGGAGUUCUACAGUCCGACGAUCGGUUGAUACAUCCUCUUUGAUGGCUGGAUUUUCAUAAUAGUCCAAGAUAUGUGAAUCUAAAGCGCUGCUGGCAUGCUUUUUCUUACCAUCUUUCUCAUCUGCUUUGUCUCCUUGUCCACACAACAGAGGAUUGAGCAUCA
B13: chr7:141445308:141445309:+_ENSG00000106028_ENST00000265304|hu_hu|hu_hu_hu_mus_False|8_98 (ssRNA)
RNA: GGGAGUUCUACAGUCCGACGAUCUAUGAUUGUUGUUGCUUGUCGCCUCACAUUGUUUUUAUCCAUGUACUCGCCAUAGUCCACUUUCCCUUCCACAAAUAUACGAGCCCCCUUUUUCACAUACUGAUAUGCCACGUCUCUGAGCAACAGAGGAUUGAGCAUCA
B14: chr1:84754351:84754352:-_ENSMUSG00000026219_ENSMUST00000027421|mus_hu|motif|central (ssRNA)
RNA: GGGAGUUCUACAGUCCGACGAUCAGCAUGAUUUUUCAGAACAUCCUUCAGAAGUUCAGCAUCCGCAAAAUAAAUUAUCCGGAGAAUUGCUCUAAGGCACUUAUGUCUGACCGCAGGUCCUGCUGAGGAACUAUACACUUCAUACAACAGAGGAUUGAGCAUCA
B15: chr3:176767854:176767855:-_ENSG00000177565_ENST00000430069|hu_hu|hu_hu_hu_mus_False|18_98 (ssRNA)
RNA: GGGAGUUCUACAGUCCGACGAUCGACAUCCUUGUUACUUGGAACAUCCUGCCCUCCUUCCCGUAUGCAGUGUCUAAGCACGAGCUGCGUAGGGCCACUCGUGCUGUUCUCACUGAGAUUCCAUAUUCUUGCCGUGGAGUCUCCCAACAGAGGAUUGAGCAUCA
B16: chr17:30526466:30526467:+_ENSG00000126858_ENST00000394692|hu_hu|motif|central (ssRNA)
RNA: GGGAGUUCUACAGUCCGACGAUCGUAAGGGAAAACUUUAAAUAAAUCUUUAAGCUCAUCAGGUGACAAAGCACAGUCUCGGUCCAAAUCAUGCUUGUCAAAGGUGCUUUGGAGAAAUAAAUAUGCAUGAUGAUUUAAUUCAGUCAACAGAGGAUUGAGCAUCA
B17: chr1:94914393:94914394:-_ENSMUSG00000014602_ENSMUST00000171796|mus_mus|FALSE|FALSE (ssRNA)
RNA: GGGAGUUCUACAGUCCGACGAUCCCUUUAUUGCUCCAUUUUGGGAACUGUUCCCUCAGAAGGGUGACUUCUGAAUUGUCUAAGUCUCAGAACUUGCACAACCUCUCACACACGUACCAUGCAAGGUGCAUCUCAGACAAAACUCAACAGAGGAUUGAGCAUCA
B18: chr15:98780342:98780343:-_ENSMUSG00000072235_ENSMUST00000097014|mus_mus|FALSE|FALSE (ssRNA)
RNA: GGGAGUUCUACAGUCCGACGAUCUUAUUUAAAACCCAUAAGUGAAAUGGGCAGCUUGGGUCUCUGUCAAAUCAAUCAUUCAUAAGUCAGUAACUGUAUGAAAGCACACAUUGCCACAUACAAAUUAACUGAUCAGACCACAACCAACAGAGGAUUGAGCAUCA
B19: chr11:35642274:35642275:-_ENSMUSG00000018848_ENSMUST00000018992|mus_mus|motif|central (ssRNA)
RNA: GGGAGUUCUACAGUCCGACGAUCCUGCUGACUUGGUGUCACGAUCAGGGGAGGGUUCUCCAAGUCUGGAUAUGCAGCCCGGAUGGCACAGCCAAAGACUUCCUGCAGGCGGCUGUUGAUGUUAAUCAUGUUUUUAGUUGGUUUCAACAGAGGAUUGAGCAUCA
B20: chr7:102090678:102090679:+_ENSG00000160991_ENST00000478730|hu_hu|FALSE|FALSE (ssRNA)
RNA: GGGAGUUCUACAGUCCGACGAUCAGCCAGCCUGUCUUCUUGACCCAAAGCCACUCCUUGGAGGAACGCUGACAUGCUGACAUUCUUUUUUCUUUAUUUUCUUUUUUUUUUUUUUAGAGACAGGGUCUCACUCUGUCACCCAGGCAACAGAGGAUUGAGCAUCA
B21: chr14:89307221:89307222:+_ENSG00000165533_ENST00000346301|hu_mus|hu_hu_hu_mus_False|28_58 (ssRNA)
RNA: GGGAGUUCUACAGUCCGACGAUCUCCUGUUUGGUUAGUGCCAGGGAGCUUCAAAGAUGUGCCAGGGCGUGGGACCUGAGCUAUAGCAUUUUCAUCCAGGAUCAUUUCUGCAAUUCCUUCCUGGUCCACAUCAAUUUCAUCUAUCAACAGAGGAUUGAGCAUCA
B22: chr14:79828021:79828022:+_ENSMUSG00000043881_ENSMUST00000061222|mus_mus|FALSE|FALSE (ssRNA)
RNA: GGGAGUUCUACAGUCCGACGAUCAGGAUCAUAGCAGAGCAUGCGCUUACUGUUGACAGCGUAAAGAUAAUUCUGAACCACUAUUAGUUCAAAUGAAUAAAAGGAAUGUGGUACAGGAGCCACCAAUGCCCAUUGGUUCCUCUGCAACAGAGGAUUGAGCAUCA

target: T1, UNK ZnF1-3 (human, UniProt Q9C0B0 31-174); test: nsRBNS (natural sequence RNA bind-n-seq); RBNS binding buffer (assumed for nsRBNS): 25 mM Tris pH 7.5, 150 mM KCl, 3 mM MgCl2, 0.01% Triton X-100, 500 ug/ml BSA, 20 U/ml SUPERase-In, 4 C; UNK is unkempt and MSI1 is Musashi-1; names of the RNAs are library labels; protein concentration not given here; high values mean tight binding
T1 sequence: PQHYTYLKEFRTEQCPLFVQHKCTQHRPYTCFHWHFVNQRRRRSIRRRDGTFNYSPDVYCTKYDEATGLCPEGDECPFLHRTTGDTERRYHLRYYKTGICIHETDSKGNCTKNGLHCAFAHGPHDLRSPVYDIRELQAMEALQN

Row | Binder | binding signal
1 | B1 | 0.752 enrichment R
2 | B2 | 0.529 enrichment R
3 | B3 | 1.5 enrichment R
4 | B4 | 0.795 enrichment R
5 | B5 | 1.26 enrichment R
6 | B6 | 0.607 enrichment R
7 | B7 | 1.66 enrichment R
8 | B8 | 0.65 enrichment R
9 | B9 | 1.12 enrichment R
10 | B10 | 0.801 enrichment R
11 | B11 | 0.859 enrichment R
12 | B12 | 0.493 enrichment R
13 | B13 | 0.654 enrichment R
14 | B14 | 2.25 enrichment R
15 | B15 | 0.541 enrichment R
16 | B16 | 0.969 enrichment R
17 | B17 | 0.73 enrichment R
18 | B18 | 0.907 enrichment R
19 | B19 | 1.13 enrichment R
20 | B20 | 0.695 enrichment R
21 | B21 | 0.909 enrichment R
22 | B22 | 0.777 enrichment R
